This is one part of the list. Further columns of the screen follow, without active or inactive calls.
Legend:
Experiment in all cases: Primary Screen for Target Class Profiling of Small Molecule Inhibitors of Methyltransferases
[1] = target: Glycine N-methyltransferase (Homo sapiens) (UniProt Q14749); details: purified enzyme, MTase-Glo SAH luminescence; measured here: GNMT inhibition; at 40 µM; stronger effect = lower value
Method in brief: (§1)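 Each enzyme was assayed with SAM and its substrate. SAH formation detected by MTase-Glo luminescence; single-point 40 uM screen[…].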

[2] = target: Guanidinoacetate N-methyltransferase (Homo sapiens) (UniProt Q14353); details: purified enzyme, MTase-Glo SAH luminescence; measured here: GAMT inhibition; at 40 µM; stronger effect = lower value
Method in brief: as §1

[3] = target: Histamine N-methyltransferase (Homo sapiens) (UniProt P50135); details: purified enzyme, MTase-Glo SAH luminescence; measured here: HNMT inhibition; at 40 µM; stronger effect = lower value
Method in brief: as §1

[4] = target: Nicotinamide N-methyltransferase (Homo sapiens) (UniProt P40261); details: purified enzyme, MTase-Glo SAH luminescence; measured here: NNMT inhibition; at 40 µM; stronger effect = lower value
Method in brief: as §1

[5] = target: Phenylethanolamine N-methyltransferase (Homo sapiens) (UniProt P11086); details: purified enzyme, MTase-Glo SAH luminescence; measured here: PNMT inhibition; at 40 µM; stronger effect = lower value
Method in brief: as §1
On the % scale 0 is the no-effect control and ±100 the full control effect.

Row | SMILES | activity change, negative = inhibition [1] [%] | activity change, negative = inhibition [2] [%] | activity change, negative = inhibition [3] [%] | activity change, negative = inhibition [4] [%] | activity change, negative = inhibition [5] [%]
1 | O=C(CCC1CCCC1)Nc1ccc(-c2nnc3n2CCCC3)cc1 | -1.71 | 0.758 | -1.86 | -7.71 | 12.7
2 | CCOC(=O)[C@@H](N)Cc1ccc(-c2cc(O[C@H](c3ccc(Cl)cc3-n3ccc(C)n3)C(F)(F)F)nc(N)n2)cc1 | -86.4 | 1.13 | 5.21 | -46.6 | -0.737
3 | O=C(NN1CCCC1)NS(=O)(=O)c1ccc(Cl)cc1 | -0.745 | 4.08 | 2.65 | -13.9 | -8.88
4 | CCN(CC)Cc1cccc(NS(=O)(=O)NCc2ccccc2)c1 | -5.77 | -8.75 | -22.4 | -12.1 | 6.05
5 | CC(=O)Nc1c2n(c3ccccc13)CC(C)(C(=O)NC1CCCCC1)N(C1CCCCC1)C2=O (stereo not given) | 0.515 | 3.46 | -0.192 | -1.47 | 1.43
6 | COC(=O)C1=COC(O[C@@H]2O[C@H](CO)[C@@H](O)[C@H](O)[C@H]2O)/C(=C\COC(=O)/C=C/c2ccccc2)C1CC(=O)OCCc1ccc(O)cc1 (stereo not given in full) | 2.6 | 8.79 | 0.466 | -4.28 | 7.85
7 | CCc1ccccc1OC[C@@H](O)CN[C@H]1CCCc2ccccc21 | -16.6 | -2.47 | -26.3 | -18.5 | -5.53
8 | COc1ccccc1CNC(=O)C1(C)Cn2nc(-c3ccccc3)cc2C(=O)N1Cc1cccc(C)c1 (stereo not given) | 1.89 | 0.133 | 9.25 | 11 | 3.31
9 | CCCSCCCN1C(=O)c2cc3occc3n2CC1(C)C(=O)NC1CCCCC1 (stereo not given) | 3.33 | -13.6 | 7.19 | 13 | 3.76
10 | COc1ccc(C(=O)N[C@@H]2CN(C(=O)Nc3cccc(C(F)(F)F)c3)CCC[C@H]2O)cc1 | -8.16 | -11.1 | -6.89 | -15.6 | -2.12
11 | COc1ccc(OC)c(S(=O)(=O)N2CCc3nc(-c4ccccc4)[nH]c3C2)c1 | 0.469 | -2.38 | 12.4 | -11.9 | 0.109
12 | COc1ccc2c(OCc3nnc4ccc(-c5ccccc5)nn34)ccnc2c1 | 3.24 | 1.15 | 4.29 | -11.9 | -6.46
13 | COc1ccc(-c2cc3n(n2)CC(C)(C(=O)NC2CCCCC2)N(CCCOC(C)C)C3=O)cc1 (stereo not given) | -1.14 | 0.445 | 4.78 | 0.193 | -0.253
14 | C=C1[C@H](OC(C)=O)[C@H]2[C@@H](OC(C)=O)[C@](C)(OC(C)=O)C[C@]2(OC(C)=O)C(=O)[C@H](C)/C=C/C(C)(C)C(=O)[C@H](OC(=O)C(C)C)[C@H]1OC(C)=O | -0.981 | 1.53 | 10.9 | -14 | -8.55
15 | CC(C)OCCCn1c(=O)c2ccccc2n2c(SCc3ccccc3Cl)nnc12 | -3.68 | 2.86 | 9.87 | -4.7 | 5.25
16 | Cc1noc(-c2ccccc2Cl)c1C(=O)NCCCc1ccccc1 | -11 | -9.21 | -5.38 | -24.6 | -14.6
17 | CN1C(=O)c2cc3ccccc3n2CC1(C)C(=O)NCC(=O)N1CCCCC1 (stereo not given) | -7.25 | 5.2 | -3.37 | -4.44 | 0.927
18 | O=C1CCCCC(C(=O)N2CC=C(c3ccccc3)CC2)N1 (stereo not given) | -8.96 | -3.29 | -1.33 | -6.28 | -0.858
19 | C=C(C(=O)O)C1CCC2(C)CCC(O)C(=C)C2C1 (stereo not given) | 1.33 | 1.78 | 10.4 | -11.9 | 4.36
20 | COC1CCN(CC2CCCCCN2C(=O)c2cc(F)ccc2F)CC1 (stereo not given) | -2.29 | -9.42 | -5.11 | -16.4 | -10.4

Row | SMILES | activity change, negative = inhibition [1] [%] | activity change, negative = inhibition [2] [%] | activity change, negative = inhibition [3] [%] | activity change, negative = inhibition [4] [%] | activity change, negative = inhibition [5] [%]
21 | CC(C)Cn1c(=O)c2ccc(C(=O)NC(C)C)cc2n2c(SCc3cccc(F)c3)nnc12 | 0.081 | -12.2 | 8.8 | -3.62 | -8.16
22 | CN1CCN(C2=Nc3ccccc3Oc3ccc(Cl)cc32)CC1 | -8.72 | 2.73 | -0.665 | -10.4 | 5.04
23 | COc1cccc(N2CCN(S(=O)(=O)c3ccc4[nH]c5c(c4c3)CCCC5)CC2)c1 | -2.71 | 1.67 | -2.08 | -2.84 | 0.038
24 | CCn1nc(CC(C)C)cc1C(=O)N(C)Cc1cccc(-n2cccn2)c1 | -7.44 | -5.23 | -2.36 | -16.9 | -11
25 | COCC(=O)NC1CCC12CCN(C(=O)c1ccc3ccccc3n1)CC2 (stereo not given) | -1.47 | -3.88 | 2.07 | -6.57 | -2.14
26 | CN1C(=O)c2cc(C(=O)N3CCC(Cc4ccccc4)CC3)nn2CC1(C)C(=O)NCc1ccccc1 (stereo not given) | -3.63 | 4.28 | -0.575 | -1.16 | 0.724
27 | CN1C2CCC1CC(OC(=O)c1c[nH]c3ccccc13)C2 (stereo not given) | -8.29 | 3.22 | -10.7 | -9.53 | 4.15
28 | CC(C)NC(=O)c1ccc2c(=O)n(C)c3nn(CC(=O)Nc4cccc(F)c4)c(=O)n3c2c1 | 7.27 | 1.99 | 11.2 | 0.028 | 9.17
29 | CNc1cccnc1OC1CCN(S(=O)(=O)c2ccc3c(c2)CCC3)C1 (stereo not given) | -10.6 | -12.1 | -5.25 | -21.2 | -13.2
30 | Cc1ccc(NC(=O)Cn2nc3n(CCCOC(C)C)c(=O)c4ccccc4n3c2=O)c(C)c1 | 2.14 | 4.91 | -0.935 | -5.39 | 2.43
31 | CC1=CC[C@]2(C(=O)O[C@@H]3O[C@H](CO[C@@H]4O[C@H](CO)[C@@H](O[C@@H]5O[C@@H](C)[C@H](O)[C@@H](O)[C@H]5O)[C@H](O)[C@H]4O)[C@@H](O)[C@H](O)[C@H]3O)CC[C@]3(C)C(CCC4[C@@]5(C)C[C@@H](O)[C@H](O)[C@@](C)(CO)C5CC[C@]43C)C2C1C (stereo not given in full) | 4.76 | 4.4 | 7.67 | -9.07 | 5.03
32 | COc1ccc(OC)c2c1cc1n2CC(C)(C(=O)NC2CCCC2)N(Cc2ccc(F)cc2)C1=O (stereo not given) | 8.53 | 0 | 11.3 | 15.6 | 4.94
33 | Cc1cc(Cl)ccc1NC(=O)CN(C)S(=O)(=O)c1ccc2[nH]c3c(c2c1)CCCC3 | -2.08 | -3.49 | 2.94 | -4.09 | -0.478
34 | CC(C)CC(=O)N1CCCCCC1c1nc(-c2ccncc2)no1 (stereo not given) | -5.3 | -6.87 | -3.35 | -6.69 | -4.32
35 | CCc1ccc(S(=O)(=O)c2nnn3c2nc(NCCC(C)C)c2ccccc23)cc1 | -1.35 | 3.49 | -1.35 | 3.52 | -4.47
36 | CC(C)c1nnc(C2CN(C(=O)Cc3ccccc3Cl)CC23CCOCC3)o1 (stereo not given) | -0.662 | 0.173 | 0.088 | 3.06 | -2.47
37 | CCCn1c(=O)c2ccc(C(=O)NC3CCCCC3)cc2n2c(=O)n(CC(=O)c3cc(C)ccc3C)nc12 | 3.31 | 0 | 5.56 | 1.36 | 3.72
38 | Cc1nnc(C(=O)NC(C)(C)c2nc(C(=O)NCc3ccc(F)cc3)c(O)c(=O)n2C)o1 | 7.08 | -1.88 | 3.17 | -15.8 | -3.64
39 | CC1(C(=O)NC2CCCCC2)Cn2nc(-c3cccs3)cc2C(=O)N1Cc1ccccc1 (stereo not given) | -5.39 | 3.07 | 4.62 | -5.36 | -2.88
40 | CC(C)Cn1c(=O)c2ccc(C(=O)NC3CCCCC3)cc2n2c(=O)n(CC(=O)NC3CCCC3)nc12 | 3.52 | 4.62 | 6.23 | -0.393 | -0.227

Row | SMILES | activity change, negative = inhibition [1] [%] | activity change, negative = inhibition [2] [%] | activity change, negative = inhibition [3] [%] | activity change, negative = inhibition [4] [%] | activity change, negative = inhibition [5] [%]
41 | CCOc1ccccc1CNC(=O)CCn1ccc2cc(S(=O)(=O)N3CCC(C)CC3)ccc21 | -8.09 | -2.2 | -10.4 | -10.1 | -5.42
42 | CC1(C(=O)NC2CCCCCCC2)Cn2c(ccc2-c2ccccc2)C(=O)N1Cc1cccs1 (stereo not given) | -2.46 | 0.405 | -5.63 | -8.68 | -0.343
43 | COc1ccc(NC(=O)Cn2c(=O)oc3cc(S(=O)(=O)N4CCC(C)CC4)ccc32)c(OC)c1 | -2.1 | -2.63 | -5.78 | -16.4 | -7.63
44 | COC(=O)c1ccc2c(c1)nc(NC(=O)c1ccccc1)n2CCCc1ccccc1 | -0.902 | -4.87 | 4.75 | -13.8 | 0.44
45 | COc1ccc(Cl)cc1C(=O)N1CCC2(CC1)CN(C)CCN2C | -1.47 | 0.06 | 1.19 | 1.52 | -0.82
46 | COCCCN1C(=O)c2ccc(-c3ccccc3)n2CC1(C)C(=O)NC1CCCCCCC1 (stereo not given) | -7.1 | -4.19 | -5.79 | -19.5 | -1.62
47 | O=c1nc(-c2ccccn2)sc2ccccc12 | -2.16 | -5.31 | 2.97 | -16 | -0.383
48 | COc1ccc(CN2CC(c3nc(Cc4cccnc4)no3)C2)c(OC)c1 | -6.47 | -1.61 | -3.28 | -50 | 0.432
49 | O=C(c1nc(-c2cccnc2)c2ccccn12)N1CCOCC1 | -8.15 | -8.71 | -3.38 | -10.5 | -4.34
50 | Cc1ccc(Nc2ccn3c(=O)n(CC(=O)Nc4ccc(F)cc4C)nc3n2)cc1 | -1.12 | 2.4 | -6.49 | -7.54 | -8.22
51 | CC1CCN(c2cc(NC(=O)c3ccccc3)ncn2)CC1 | 0.517 | 6.27 | 1.82 | -17.3 | -4.83
52 | COc1ccc(Br)cc1CN1C(=O)c2ccc(-c3ccco3)n2CC1(C)C(=O)NCc1ccccc1 (stereo not given) | -2.33 | 0 | -1.66 | -4.66 | -5.36
53 | CC1(C(=O)NCc2ccccc2)Cn2cnc(C(=O)NCCc3cccs3)c2C(=O)N1C1CC1 (stereo not given) | -5.99 | 2.37 | -3.5 | -2.96 | -1.95
54 | CCc1nc(-c2c3n(c(=O)n(CC(=O)Nc4cc(C)on4)c2=O)CCCC3)no1 | -5.64 | -6.85 | -3.02 | -14.2 | 7.24
55 | CCC12CCCN3CCc4c(n(c5ccccc45)C(O)C1)C32 (stereo not given) | 4.36 | 7.81 | -45.1 | -10.6 | 5.91
56 | O=C(Cn1c(=O)n2nc(-c3ccccc3)nc2c2ccccc21)N1CCN(c2ccccc2F)CC1 | 10.8 | 0 | 10.9 | 7.29 | 4.52
57 | NC[C@@H]1O[C@@H](O[C@@H]2[C@@H](O[C@@H]3O[C@H](CO)[C@@H](O)[C@H]3O)[C@H](O)[C@@H](N)C[C@H]2N)[C@@H](N)[C@H](O)[C@H]1O | 4.89 | 8.69 | 11.6 | -3.26 | 8.38
58 | CN(CC(=O)NCc1ccccc1Cl)S(=O)(=O)c1ccc2[nH]c3c(c2c1)CCCC3 | -9.82 | -2.87 | -11.9 | -15.2 | -24.2

— PubChem BioAssay AID1745853 (National Center for Advancing Translational Sciences (NCATS), 2022)
